Data as given in PMC7819943, “Rice protein-binding microarrays: a tool to detect cis-acting elements near promoter regions in rice”.
This is one part of the list.

These sequences were tested against T1, OsWOX13 (Oryza sativa, UniProt Q5QMM3 1-267) (assay: protein-binding microarray (RPBM); PBS, 2% BSA, 51.3 ng/ul salmon testes DNA, 50 uM zinc acetate, 200 nM TF, 25 C, 1 h; high values mean tight binding). Settings: protein: recombinant; tags: N-terminal polyhistidine and DsRed monomer fusion (pET32a); label: CyDye5-dUTP incorporated in the synthesized complementary strand; 3' TTTTT single-stranded linker to array surface; dsDNA, one strand shown.
T1 sequence: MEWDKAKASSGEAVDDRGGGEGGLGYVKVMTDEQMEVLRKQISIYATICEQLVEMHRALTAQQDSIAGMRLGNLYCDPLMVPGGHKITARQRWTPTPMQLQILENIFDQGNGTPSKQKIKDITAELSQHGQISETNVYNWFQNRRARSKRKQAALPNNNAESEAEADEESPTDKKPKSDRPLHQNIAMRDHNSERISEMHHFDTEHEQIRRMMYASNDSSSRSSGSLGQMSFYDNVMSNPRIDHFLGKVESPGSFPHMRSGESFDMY
How it was run: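 Polyhistidine-tagged DsRed fusions of transcription factors, joined at the N-terminus, were expressed in E. coli BL21-CodonPlus and isolated on Ni–NTA. They were incubated at 200 nM for 1 h at 25 °C on a custom Agilent array, double-stranded and BSA-blocked, in PBS with 2% BSA, salmon testes DNA and 50 µM zinc acetate. The binding signal is per-feature fluorescence intensity (arbitrary units) read on an Axon 4000B scanner after washing.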

Sequence | binding signal
TATAATCAAATTGCCATGCTTCAATTTTCAACGATGTTTTCGGAGTCACCTAGTGCAG | 4820 fluorescence intensity (a.u.)
TCTCTAATTACTATTATTTTCTAAATCTATTTGCATATGACGGAGTCACCTAGTGCAG | 21200 fluorescence intensity (a.u.)
CTTAACTGGTTATGTTTCCTGTGATGTAACTAGCTCACTTCGGAGTCACCTAGTGCAG | 24200 fluorescence intensity (a.u.)
AGCACGTAATTATATATGTTCTCAGATGATGTGATAGGGACGGAGTCACCTAGTGCAG | 21900 fluorescence intensity (a.u.)
TCAGAATCGTGATTGTGTGAAGTACTAAGAATAGATCGGCCGGAGTCACCTAGTGCAG | 5120 fluorescence intensity (a.u.)
ATATTTTGACAGTTAATTATTAGGATCAATATAAAATAATCGGAGTCACCTAGTGCAG | 15800 fluorescence intensity (a.u.)
ATGACTGGCAAACAACCGTCAGTCGAGCAACTGCCATCCACGGAGTCACCTAGTGCAG | 3750 fluorescence intensity (a.u.)
GTACTGGATTGAATTTGAAGATGTTTATTTGAGCGTATATCGGAGTCACCTAGTGCAG | 5520 fluorescence intensity (a.u.)
AACTAATGAAAACAGAGTGATATTTCTGCTCTTCTTGCTACGGAGTCACCTAGTGCAG | 4610 fluorescence intensity (a.u.)
TCTCTCTTCCATATAAATTTATAGTTGACTTACTATTATCCGGAGTCACCTAGTGCAG | 3450 fluorescence intensity (a.u.)
GATAATTTAGCAATAAGGAATTGAAATCATAGTACAAAGTCGGAGTCACCTAGTGCAG | 11400 fluorescence intensity (a.u.)
GTATAATTGACAGATGAATTTCACGCAAGAGTATATTGAGCGGAGTCACCTAGTGCAG | 55900 fluorescence intensity (a.u.)
TTCCAGTTTCTATACTTAATTGCGCACGGTTGAATACATACGGAGTCACCTAGTGCAG | 7840 fluorescence intensity (a.u.)
TAGGAATTTCTCTAATTTATTAAAGCGCCACGTGTCAGTTCGGAGTCACCTAGTGCAG | 4760 fluorescence intensity (a.u.)
TATAGATTGATGCCAAATCTAACCTAAGTTATTAGTTATTCGGAGTCACCTAGTGCAG | 24900 fluorescence intensity (a.u.)
GATGATTTGATTAGATTAGGTTAGGTTTGTTATTCACCTACGGAGTCACCTAGTGCAG | 65500 fluorescence intensity (a.u.)
AATAATTATTTCTTGGTCTTTGGATTAAGGGTGATTGTGCCGGAGTCACCTAGTGCAG | 26600 fluorescence intensity (a.u.)
GGTAGTCAATTATAGTGGATACAAATATCCTAGCTGGTTTCGGAGTCACCTAGTGCAG | 6080 fluorescence intensity (a.u.)
TCAGATTAGCATTTTGGCACATGAATCTTGGCCGTCAATACGGAGTCACCTAGTGCAG | 4000 fluorescence intensity (a.u.)
ATGGGATTGAAAACGATCAAATTAATATGTACAGTACTGACGGAGTCACCTAGTGCAG | 24800 fluorescence intensity (a.u.)
GTGGTTATTGGATTGGAACCGACGGCGACTAGCCTGAGAGCGGAGTCACCTAGTGCAG | 3220 fluorescence intensity (a.u.)

Sequence | binding signal
CATCATAATGATGTTGACATGAAATCATAAATACTTTCTACGGAGTCACCTAGTGCAG | 5220 fluorescence intensity (a.u.)
GTTAATTAATTTCGTGTGCGAACTAAAACGACTAATCCGACGGAGTCACCTAGTGCAG | 22700 fluorescence intensity (a.u.)
CTTAATTAATTATAATCTCTAGTTAGTACAATTAATTAGCCGGAGTCACCTAGTGCAG | 49100 fluorescence intensity (a.u.)
GGAACAATTATAGATTTACCACTTATTCTAATCGGTACCGCGGAGTCACCTAGTGCAG | 7320 fluorescence intensity (a.u.)
ATACCCGATTTAAATTTGAATTTGAATTATATTTAAATTCCGGAGTCACCTAGTGCAG | 5060 fluorescence intensity (a.u.)
GTAACTTATTCTTAATTGCTTTTGATGAGTTGACTTCGTTCGGAGTCACCTAGTGCAG | 16300 fluorescence intensity (a.u.)
TCATTGATTGATTGGTACTACTACTGCTAGAAGAAAAGGCCGGAGTCACCTAGTGCAG | 55200 fluorescence intensity (a.u.)
CGGGCAACACATTCCTTGATTGAGCCAAGCTCGGTAACACCGGAGTCACCTAGTGCAG | 7920 fluorescence intensity (a.u.)
ACCTATATATTAATGATAGGTAATTTGACATTCAACCATACGGAGTCACCTAGTGCAG | 13300 fluorescence intensity (a.u.)
AAACCTGATCAGTTTGATTTAATTTGAGTTAATTTAGCTTCGGAGTCACCTAGTGCAG | 17100 fluorescence intensity (a.u.)
GTTAAATTAATAATGATATGCTGGGTAGCTAGCAATCTTGCGGAGTCACCTAGTGCAG | 39400 fluorescence intensity (a.u.)
CAATCTCTGATGATTGGCCCATCACCACTATATATATGATCGGAGTCACCTAGTGCAG | 21800 fluorescence intensity (a.u.)
ATGGGATTGGGTGTATGACAATGATGCTACTAATCCCATTCGGAGTCACCTAGTGCAG | 3840 fluorescence intensity (a.u.)
ATGTTTGGACACTAATTATAAATATTAAACGTAGACTATTCGGAGTCACCTAGTGCAG | 5950 fluorescence intensity (a.u.)
GAGTTAACAGATATGGTCCGAACCTGTCGGGCGAGTTGACCGGAGTCACCTAGTGCAG | 7220 fluorescence intensity (a.u.)
TACTGCTCACCATTGATTATTTCCATGGAAATACAGTAGGCGGAGTCACCTAGTGCAG | 4010 fluorescence intensity (a.u.)
AGTTAATGAGTTATTAAGAACAGTTAACTACCGAAGGAAGCGGAGTCACCTAGTGCAG | 15600 fluorescence intensity (a.u.)
GAGGTGAAGGTAAACAAATTGAATTGATCAAACGACGACGCGGAGTCACCTAGTGCAG | 6250 fluorescence intensity (a.u.)
GTAAGTGATATAAATCTTTTCTATGATTGCGAAAAGTAAACGGAGTCACCTAGTGCAG | 11500 fluorescence intensity (a.u.)
CTTAATGAGAGAAGAAAATTAGAGATATAATTTGGATAGTCGGAGTCACCTAGTGCAG | 13400 fluorescence intensity (a.u.)
AAACAAATTTTCAGTTTTGTCAATTCCATCCTAAACTTTGCGGAGTCACCTAGTGCAG | 5320 fluorescence intensity (a.u.)

Sequence | binding signal
CATCTTATCTATCTAGATTTGTAATTCTAAGATGTGTCTTCGGAGTCACCTAGTGCAG | 4570 fluorescence intensity (a.u.)
GGCTAATGATGATGCGGATGGATGCTGCTAATGACTGTGGCGGAGTCACCTAGTGCAG | 14200 fluorescence intensity (a.u.)
CAATTTGACAGATATAATTATAGTACAATCGTAGTATAATCGGAGTCACCTAGTGCAG | 33200 fluorescence intensity (a.u.)
GAAGATGATGATGATTTAGCATGCAAATGAGCAGTTGACACGGAGTCACCTAGTGCAG | 13800 fluorescence intensity (a.u.)
ACGTTATTAATTACTTAGTACTACTATGAGTTAACTATGGCGGAGTCACCTAGTGCAG | 18500 fluorescence intensity (a.u.)
ATTAAACTTGCTCTAAACTCGTAATTTGTCCCGCTAAAATCGGAGTCACCTAGTGCAG | 3300 fluorescence intensity (a.u.)
TTAAAACTCAATTAATCACACGTTATTACCACCTCGTTTTCGGAGTCACCTAGTGCAG | 7750 fluorescence intensity (a.u.)
ATATTAGTTGATAATTACTGGCCTACTGGATCAATCTTGACGGAGTCACCTAGTGCAG | 7940 fluorescence intensity (a.u.)
AAAGAGTTATTGATAGCATGATACATATACAGATATAGATCGGAGTCACCTAGTGCAG | 5040 fluorescence intensity (a.u.)
AAGAATTTGAAAATTAGTACAAAATTTGCAATACGGAAATCGGAGTCACCTAGTGCAG | 7120 fluorescence intensity (a.u.)
TCATAATTTGAATTCTTCTGCGCAAATTTGTTGCCGCACTCGGAGTCACCTAGTGCAG | 14900 fluorescence intensity (a.u.)
AAAGACTAATCTGAGGCCCCAATCACCACTTCATCAGCACCGGAGTCACCTAGTGCAG | 4570 fluorescence intensity (a.u.)
TTTCCTGATTGCCTTTGAAAATTATTTTATCTTGTGCATACGGAGTCACCTAGTGCAG | 37200 fluorescence intensity (a.u.)
TCTGATTTATATGGCTGAATCACGATACGGGATATCTCGACGGAGTCACCTAGTGCAG | 30300 fluorescence intensity (a.u.)
TGTTGATAGACAGCACATTATATTGCACACACATACTACACGGAGTCACCTAGTGCAG | 24300 fluorescence intensity (a.u.)
TGTCAGATTGGATGGATTGTGCTACTGTACATGCATAGTGCGGAGTCACCTAGTGCAG | 37000 fluorescence intensity (a.u.)
TTAGCACATGATTAATTGAGTATTAATTATTTTAAACTTCCGGAGTCACCTAGTGCAG | 22800 fluorescence intensity (a.u.)
CATCAATTCTAGATTTGATAAAAGGTCCCATTTTACCCAACGGAGTCACCTAGTGCAG | 3730 fluorescence intensity (a.u.)
CAAATAAATATACATGATTTTACTGAATTTTCAGCAATATCGGAGTCACCTAGTGCAG | 4720 fluorescence intensity (a.u.)
AATTGATAGGAAACAAATAAAGTAAAATTAATATGATGTACGGAGTCACCTAGTGCAG | 8380 fluorescence intensity (a.u.)
CAAAATTTTGAGTGATCTTAGATCTGTTGATTCTTCTTATCGGAGTCACCTAGTGCAG | 10300 fluorescence intensity (a.u.)

Sequence | binding signal
AATAATTAATTACTCGCAGCAAAGGACGGACAGTTTCCTGCGGAGTCACCTAGTGCAG | 42600 fluorescence intensity (a.u.)
TTTAATTACTCAACTGTTTTACCGCTTTGCTCAATAAAATCGGAGTCACCTAGTGCAG | 8820 fluorescence intensity (a.u.)
TCTGTCTGATTTGTAATCTTTTCCCTTGGCTTTGAGCGTGCGGAGTCACCTAGTGCAG | 29400 fluorescence intensity (a.u.)
CTTGATTTACTTCTAATCATTTAGATCACATTGTTGAGAACGGAGTCACCTAGTGCAG | 38500 fluorescence intensity (a.u.)
AGATGGCAAAATAGTTAATTATCTCCCACTGAACTTGTGTCGGAGTCACCTAGTGCAG | 3620 fluorescence intensity (a.u.)
CTTATCAATTTATGATAGATAGAAAGTTACAAGCCAATATCGGAGTCACCTAGTGCAG | 14800 fluorescence intensity (a.u.)
ACAAATTTGTTCAAATTTTGTTAGGATTTGTAGTGAAACTCGGAGTCACCTAGTGCAG | 7120 fluorescence intensity (a.u.)
CCCAAATTCCCTCTCCTCTGATTGGCCCATCCGCCCCTCCCGGAGTCACCTAGTGCAG | 22900 fluorescence intensity (a.u.)
CTACAACATGATTAGCTAGATATATAGGCATGTAGAACGCCGGAGTCACCTAGTGCAG | 23900 fluorescence intensity (a.u.)
CAGCCCAATAATTATGGGCCGTTGTTTGGGCTTTGGGCCGCGGAGTCACCTAGTGCAG | 4490 fluorescence intensity (a.u.)
GAAAATTATGTACATCCTCCGCTTAAAGATGACTATGAATCGGAGTCACCTAGTGCAG | 4540 fluorescence intensity (a.u.)
AATCAAATTGCCACTTAAATCTATTGCCTCAAGTGAACAGCGGAGTCACCTAGTGCAG | 16100 fluorescence intensity (a.u.)
CTTAGATGATTAATCTATGGTCCAAAGTATCTCACTGCCTCGGAGTCACCTAGTGCAG | 30900 fluorescence intensity (a.u.)
GATAAATTTGGTAAACTTAATCCAACAACGAATAGTGGGCCGGAGTCACCTAGTGCAG | 17800 fluorescence intensity (a.u.)
ATAGTTAATGGACCCGCGATATTTGGTTTTGCGGTTCGAGCGGAGTCACCTAGTGCAG | 3790 fluorescence intensity (a.u.)
CTCTCGCTCGCCATGATTGATCGAGCTCCACCTGCCAATTCGGAGTCACCTAGTGCAG | 12900 fluorescence intensity (a.u.)
TGTTTAATCAAGGGCTGATGACCCCAACTCTCATAGATATCGGAGTCACCTAGTGCAG | 3320 fluorescence intensity (a.u.)
ATAATTTAATTATATATTTTCTTAAGAATACTAAATTATGCGGAGTCACCTAGTGCAG | 34900 fluorescence intensity (a.u.)
CCATAAAACCTGTGATTATTTGCCACGCTTCATAATACATCGGAGTCACCTAGTGCAG | 4400 fluorescence intensity (a.u.)
CAAAATTAACTTTAAAATTATGTTTTAAAATTTTAAAACTCGGAGTCACCTAGTGCAG | 8090 fluorescence intensity (a.u.)
AGTTATTGATAGGTCTAATATTTCAACGATGCTCATGTACCGGAGTCACCTAGTGCAG | 17800 fluorescence intensity (a.u.)
